Test results as given in the supplement of paper PMC3334620.
Over roughly 33,000 sequences, “E-score (-0.5 to 0.5)” has its median near -0.016; the highest 2% begin near 0.32. The list shows a part of the results.

These sequences were tested against T1, Stp1 (UniProt B3LFK1) (assay: PBM E-score (8-mer binding enrichment) (E-score (-0.5 to 0.5)); higher = stronger / more preferred TF binding; most listed sequences are background and not binding sites). Details: protein concentration: 200 nM; construct: GST-full length.
T1 sequence: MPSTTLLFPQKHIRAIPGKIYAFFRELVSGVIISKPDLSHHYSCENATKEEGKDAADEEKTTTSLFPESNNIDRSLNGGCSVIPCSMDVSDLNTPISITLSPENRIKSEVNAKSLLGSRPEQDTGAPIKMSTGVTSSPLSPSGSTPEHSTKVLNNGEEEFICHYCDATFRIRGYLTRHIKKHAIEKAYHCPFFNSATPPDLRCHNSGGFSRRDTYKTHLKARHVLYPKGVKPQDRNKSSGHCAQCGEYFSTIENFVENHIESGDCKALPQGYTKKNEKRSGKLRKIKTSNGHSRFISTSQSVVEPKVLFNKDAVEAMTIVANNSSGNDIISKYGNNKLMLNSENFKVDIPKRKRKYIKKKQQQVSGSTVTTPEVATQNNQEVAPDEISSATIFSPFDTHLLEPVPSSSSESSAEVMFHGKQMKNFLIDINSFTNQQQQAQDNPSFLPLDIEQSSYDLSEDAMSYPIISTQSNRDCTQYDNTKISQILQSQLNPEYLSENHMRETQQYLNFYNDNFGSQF
Procedure, shortened: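 For each ungapped eight-base word taken together with its reverse complement, the Universal PBM Analysis Suite assigned an E-score. Binding data came from GST-tagged yeast transcription factors, applied at about 100-200 nM, on universal all-10-mer Agilent arrays made double-stranded by primer extension. Fluorescent anti-GST marked bound protein, and scans were normalised with masliner.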
With GATTGTAA the “PBM E-score” value was 0.0589. For ACGACGAG, the “PBM E-score” value was -0.191. With AAGCTATT the “PBM E-score” value was -0.0687. For CTGTTATA, the “PBM E-score” value was 0.125. TGCATCCA was tested, and the “PBM E-score” value was -0.0335. In the case of TCAGGGCA, the “PBM E-score” value was 0.0232. With ACTACGCT the “PBM E-score” value was -0.192. GCACACCC was tested, and the “PBM E-score” value was -0.179. For CTACGCCA, the “PBM E-score” value was 0.00095. CCGAAGTC was tested, and the “PBM E-score” value was -0.0338. For ATGGGCGC, the “PBM E-score” value was 0.134. GGTAAGCA was tested, and the “PBM E-score” value was -0.0428. For ACGGGTTG, the “PBM E-score” value was -0.0319. ATTAGAAC was tested, and the “PBM E-score” value was 0.0669. In the case of ACATGAGA, the “PBM E-score” value was 0.00086. For AAACCCCT, the “PBM E-score” value was -0.284. For AGCACGCA, the “PBM E-score” value was -0.127. For TCTGTTAA, the “PBM E-score” value was 0.044. For GACTAAGC, the “PBM E-score” value was -0.025. For GCCTTGCC, the “PBM E-score” value was 0.316. In the case of CAGCTACA, the “PBM E-score” value was -0.0624. With GAGTATAC the “PBM E-score” value was -0.0177. For GTGCCCAA, the “PBM E-score” value was 0.193. For ACGGTCTG, the “PBM E-score” value was -0.152. For CAATACGA, the “PBM E-score” value was 0.143. For AATCTGAG, the “PBM E-score” value was -0.0755. CTTTAAAA was tested, and the “PBM E-score” value was 0.0455. ATTGCAAA was tested, and the “PBM E-score” value was 0.0783. For ACCATTCG, the “PBM E-score” value was -0.00559. CGTAAGTC was tested, and the “PBM E-score” value was -0.066. In the case of CAATCAGG, the “PBM E-score” value was 0.105. With TATGACAA the “PBM E-score” value was 0.0978. CAAGCTTA was tested, and the “PBM E-score” value was 0.0207. With GACTGTCC the “PBM E-score” value was -0.243. GCCGGCCC was tested, and the “PBM E-score” value was -0.00182. With GGGAAAAC the “PBM E-score” value was -0.12. In the case of GGGACAAC, the “PBM E-score” value was -0.104. CGTTAATA was tested, and the “PBM E-score” value was 0.0752. In the case of ATTAAGTA, the “PBM E-score” value was -0.0251. In the case of CGGTTAGC, the “PBM E-score” value was -0.119. GACCCTGC was tested, and the “PBM E-score” value was -0.234. In the case of AGGGATAA, the “PBM E-score” value was -0.0917. GCCGCCGA was tested, and the “PBM E-score” value was 0.316. ATTCACGA was tested, and the “PBM E-score” value was 0.0641. In the case of CGGTAGGA, the “PBM E-score” value was -0.15. With ACTAGTCT the “PBM E-score” value was -0.161. For AATGGAGA, the “PBM E-score” value was 0.00782. For AGGCAAAG, the “PBM E-score” value was 0.0916. In the case of ATTTGTTG, the “PBM E-score” value was 0.216. AAACATAA was tested, and the “PBM E-score” value was 0.0445. For CCGGTCGA, the “PBM E-score” value was -0.207. With TAAACATA the “PBM E-score” value was 0.143. CCCACTTC was tested, and the “PBM E-score” value was -0.237. In the case of ATATCCAG, the “PBM E-score” value was 0.145. ATCTACAT was tested, and the “PBM E-score” value was 0.0378. With GGGTACGA the “PBM E-score” value was -0.26. In the case of ATAATCCA, the “PBM E-score” value was 0.0262. In the case of ATAGGGAG, the “PBM E-score” value was -0.333. For ATCCTACG, the “PBM E-score” value was -0.0808. With CGTGCCGA the “PBM E-score” value was 0.352. AGGGCGTA was tested, and the “PBM E-score” value was 0.0802. GCACCGGC was tested, and the “PBM E-score” value was 0.117. With TACAAGTA the “PBM E-score” value was -0.141. For ACGGCCAG, the “PBM E-score” value was -0.06. In the case of AAAGTCAA, the “PBM E-score” value was -0.0876. With AGTTAAAC the “PBM E-score” value was 0.0475. For AACCATGC, the “PBM E-score” value was 0.103. In the case of CTGCCAAC, the “PBM E-score” value was -0.149. With ACCCCGTC the “PBM E-score” value was -0.239. ACTTAGGC was tested, and the “PBM E-score” value was -0.0486. TAAATGAA was tested, and the “PBM E-score” value was 0.0329. GGCCCAAC was tested, and the “PBM E-score” value was -0.129. In the case of ACCACATG, the “PBM E-score” value was 0.00989. With CCGGAACA the “PBM E-score” value was -0.0245. For GCTCTGAC, the “PBM E-score” value was -0.225. In the case of ACAACGTA, the “PBM E-score” value was 0.063. ACACCGCC was tested, and the “PBM E-score” value was -0.0718. With CCTTATTC the “PBM E-score” value was -0.0435. In the case of CTGAAAAA, the “PBM E-score” value was -0.0424. For AGAACGGG, the “PBM E-score” value was -0.129. With AGGGTTTC the “PBM E-score” value was -0.0824. For CGGTTCCA, the “PBM E-score” value was -0.0473. GCTGTCAC was tested, and the “PBM E-score” value was -0.146. For GATCACAC, the “PBM E-score” value was -0.00065. In the case of CACTCTAG, the “PBM E-score” value was -0.111. With CCCGGAGG the “PBM E-score” value was -0.379. With AGTCCAGG the “PBM E-score” value was -0.286. CAACCGCG was tested, and the “PBM E-score” value was 0.219. With AACAAGAT the “PBM E-score” value was 0.0327. In the case of CGATGCAC, the “PBM E-score” value was -0.0077. In the case of CTATCTAA, the “PBM E-score” value was 0.0687. GCAGGCAA was tested, and the “PBM E-score” value was -0.0145. With AAATCAAT the “PBM E-score” value was 0.158. For CGGCCCCG, the “PBM E-score” value was 0.122. AGGGTTAC was tested, and the “PBM E-score” value was -0.126. GCGGACGC was tested, and the “PBM E-score” value was 0.0304. CCCATTGC was tested, and the “PBM E-score” value was -0.0165. In the case of AACGCGCC, the “PBM E-score” value was 0.361. With AAATAGTT the “PBM E-score” value was 0.0871. For CAAACATC, the “PBM E-score” value was 0.0532. For ACAGGTAC, the “PBM E-score” value was -0.147. For TATCAGGA, the “PBM E-score” value was 0.147. With ATGGTAAG the “PBM E-score” value was -0.0201. With GAAATTCC the “PBM E-score” value was -0.0721. In the case of ACCTACAA, the “PBM E-score” value was 0.0363. In the case of CTCGACTC, the “PBM E-score” value was -0.0905. For GCGCTCAA, the “PBM E-score” value was -0.0528. CACCCTAA was tested, and the “PBM E-score” value was -0.0997. In the case of CCTCCCGA, the “PBM E-score” value was -0.195. For CTACCCGC, the “PBM E-score” value was -0.018. In the case of GAACGATC, the “PBM E-score” value was -0.0803. In the case of TCACTGGA, the “PBM E-score” value was -0.151. With GTCTGTAA the “PBM E-score” value was 0.131. With ATCACTGC the “PBM E-score” value was 0.208. In the case of CGCCTCCA, the “PBM E-score” value was 0.116. For ACAGTTCA, the “PBM E-score” value was -0.021. GGATGGAC was tested, and the “PBM E-score” value was -0.244. For CATTCTGA, the “PBM E-score” value was 0.0181. With ATACGCAT the “PBM E-score” value was 0.192. In the case of ATATGCTC, the “PBM E-score” value was -0.0953. For TTCTGCAA, the “PBM E-score” value was 0.187. With ACCTAGTA the “PBM E-score” value was -0.3. With AAGATAAG the “PBM E-score” value was 0.141. With CACGGCGG the “PBM E-score” value was 0.417. With CTATACGA the “PBM E-score” value was 0.0887. In the case of ACCTATCA, the “PBM E-score” value was -0.106. With AATCATCT the “PBM E-score” value was 0.0489. For CACGCATG, the “PBM E-score” value was -0.0816. AGATCGTG was tested, and the “PBM E-score” value was -0.0646. With AAGGCCCA the “PBM E-score” value was -0.127. For CCTGGTCA, the “PBM E-score” value was -0.275. For GGTCCCAA, the “PBM E-score” value was -0.186. With CGACTGGA the “PBM E-score” value was -0.104. For AGACCTGC, the “PBM E-score” value was -0.155. In the case of AGTCTGCC, the “PBM E-score” value was -0.0863. For AACCGAAA, the “PBM E-score” value was 0.138. In the case of AAGACTTA, the “PBM E-score” value was -0.233. CCCCCAGC was tested, and the “PBM E-score” value was -0.433. With CATACCGA the “PBM E-score” value was 0.0392. With CTGAGTCA the “PBM E-score” value was 0.0843. With AACCAAGT the “PBM E-score” value was 0.132. With ATGAGAGA the “PBM E-score” value was 0.0512. In the case of ATGTGACC, the “PBM E-score” value was -0.0184. With GGGCTGTA the “PBM E-score” value was -0.317. With TACCGGTA the “PBM E-score” value was -0.115. In the case of AATGCGGA, the “PBM E-score” value was 0.0673. For AGACGATA, the “PBM E-score” value was 0.0435. For GGCCTTAA, the “PBM E-score” value was 0.0677. With TCTGCCAA the “PBM E-score” value was -0.255. For CCATATGG, the “PBM E-score” value was 0.0408. AAGCAGGA was tested, and the “PBM E-score” value was -0.113. In the case of TAGGTTCA, the “PBM E-score” value was 0.0555. For CCCCTTGA, the “PBM E-score” value was -0.137. With AGCTAGAT the “PBM E-score” value was -0.0481. In the case of GGCCGTAA, the “PBM E-score” value was 0.192. For ATAGGAGA, the “PBM E-score” value was -0.205. In the case of GATGATCA, the “PBM E-score” value was -0.0875. GCCATACA was tested, and the “PBM E-score” value was 0.174. With GAGCACGA the “PBM E-score” value was -0.0484. In the case of CGCGCTAG, the “PBM E-score” value was 0.129. In the case of ACTAATCG, the “PBM E-score” value was 0.144. For AAGTGTCG, the “PBM E-score” value was -0.0319. In the case of CGTCGGTC, the “PBM E-score” value was 0.00037. With ATCCACAC the “PBM E-score” value was -0.106. In the case of TACTTCCA, the “PBM E-score” value was 0.0101. AATGTAAA was tested, and the “PBM E-score” value was 0.122. With CGTCGTGC the “PBM E-score” value was 0.143. For AGGTATAA, the “PBM E-score” value was 0.0442. GTGGTTAA was tested, and the “PBM E-score” value was 0.14. For GCGGGGAC, the “PBM E-score” value was -0.0535. In the case of TGCCTACA, the “PBM E-score” value was 0.142. In the case of ACTAGGGG, the “PBM E-score” value was -0.169.
